These results are taken from US20090238791A1 (INSTITUT NATIONAL DE LA SANTE ET DE LA RECHERCHE MEDICALE …, published 2009).

As usually defined, the Kd is the equilibrium constant for the complex coming apart. Broadly, the koff is the rate constant with which the complex falls apart. In general, kon refers to the second-order rate constant of association.

Assay [1] has as its target T1, Recombinant human IL-15 (human, UniProt P40933 in part).
T1 construct: also called rIL-15; human rIL-15
Kind of assay: SPR, BIAcore 2000. As for the experimental part: (§1) These experiments were performed with a BIACore 2000 biosensor (BIACore, Uppsala, Sweden). rIL-15 was covalently linked to CM5 sensor chips, and the binding of increasing concentrations of sIL-15Rα-IL-2, sIL-15Rα-sushi-IL-2 or sIL-15Rα-sushi was monitored. Analysis of sensograms was performed using BIAlogue kinetics evaluation software.

In assay [2] the target is T1, Recombinant human IL-15. Kind of assay: SPR, analysis of sensorgrams. As for the experimental part:
as §1
In general terms: Surface plasmon resonance follows binding to a sensor surface in real time, without labels.

Assay [3] concerns the target T1, Recombinant human IL-15. Kind of assay: Competition with 125I-rIL-15 binding to TF-1 cells. As for the experimental part: Labeling with [¹²⁵I]-iodine of human rIL-15, sIL-15Rα-sushi and RLI fusion protein, and subsequent binding experiments were performed as described previously (19). For internalization, cells were equilibrated at 4° C. with labeled sIL-15Rα-sushi or RLI, and the temperature switched to 37° C. At different time intervals, two samples were washed and centrifuged. One of the cell pellets was treated with glycine-HCl buffer 0.2 M, pH 2.5, whereas the other was treated with PBS pH 7.4 at 4° C. for 5 min. After centrifugation, total ligand binding was determined from the pellet of the cells treated with PBS, whereas the membrane bound and internalized fractions were determined respectively from the supernatant and pellet of cells treated with acid pH.
The three soluble forms of IL-15Rα were tested for their ability to compete out the binding of radio-iodinated IL-15 to IL-15Rα expressed by the human cell line TF-1 which also expresses the IL-15Rγ chain, but not the IL-15Rβ chain (FIG. 1D).

T1 sequence (P40933 49-162 limits assumed): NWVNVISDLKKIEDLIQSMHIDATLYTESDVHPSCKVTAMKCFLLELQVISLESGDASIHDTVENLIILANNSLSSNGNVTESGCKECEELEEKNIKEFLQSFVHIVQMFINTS

B1: sIL-15Rα-sushi-IL-2 (receptor)
chain: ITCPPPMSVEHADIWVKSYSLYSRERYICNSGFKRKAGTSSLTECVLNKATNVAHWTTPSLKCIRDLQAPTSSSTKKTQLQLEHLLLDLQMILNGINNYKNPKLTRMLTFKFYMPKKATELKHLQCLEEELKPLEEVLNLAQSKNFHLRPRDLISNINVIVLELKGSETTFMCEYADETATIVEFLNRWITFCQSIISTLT
notes: The signal peptide is left out; also called Sushi15-IL-2
In the case of B1, in assay [1], the Kd was determined as 0.42 nM, the “fold lower affinity than sIL-15Rα-IL-2” value was determined as 10 fold, the koff is 0.00013 s⁻¹ and the kon is 310000 M⁻¹ s⁻¹. Also, in assay [2], the Kd is 0.428 nM. Further, the “fold decrease of affinity against sIL-15Rα-IL-2” value in assay [3] came to 3.5 fold.

B2: sIL-15Rα-IL-2 fusion protein (receptor)
chain: ITCPPPMSVEHADIWVKSYSLYSRERYICNSGFKRKAGTSSLTECVLNKATNVAHWTTPSLKCIRDPALVHQRPAPPSTVTTAGVTPQPESLSPSGKEPAASSPSSNNTAATTPAIVPGSQLMPSKSPSTGTTEISSHESSHGTPSQTTAKNWELTAPASHQPPGVYPQGHSDTTLQ[no letters for about 150 residues]
notes: Its first 30 residues are the IL-15Rα signal peptide, which is not part of the secreted protein; also called sIL-15R-IL-2; full length soluble IL-15Rα
In the case of B2, in assay [1], the equilibrium dissociation constant (Kd) was determined as 0.038 nM, the koff was determined as 1.4e-05 s⁻¹ and the kon was 370000 M⁻¹ s⁻¹.
